Data reported in PubChem BioAssay AID1347120 (National Center for Advancing Translational Sciences (NCATS), 2019).
Hit rate of the full screen: of about 390,000 compounds, about 930 (0.24%) were called active. The inconclusive results got no clear call from the source; some entries with a clear call stand among them for comparison. Calls follow the shape of the dose curve; as a rule, active = well fitted activation curve with a large enough effect; inconclusive = small, poorly fitted or top-dose-only effect; inactive = no such curve, though single readings can be large or run the other way. Where the call is inconclusive, the potency comes from a doubtful curve fit.

Assay: qHTS for Suppressors of FUS Proteinopathy: Primary screen using FUS-linked yeast assay; also: nearly all actives have a fitted effect of over 55% in size;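 as to growth rescue (activation): plate controls were DMSO vehicle for no effect and reference control for full effect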
Settings: S. cerevisiae FUS-expressing, OD600, 24 h; Potency: growth rescue; growth rescue (activation): at 76.6 µM (top of the series)
Outline: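 Toxicity suppression screen in FUS-yeast. Cells induced with 2% galactose, starting OD 0.005, treated 24hr at 30C with compounds at multiple final concentrations; growth by OD600.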
Potency is read from the fitted curve at half-maximal effect; tags tell the direction and shape of the fitted curve.

Row | Compound | Potency | growth rescue (activation)
1 | CC(=O)C1=C(C)NC(=O)NC1c1ccc(OC2CCCC2)cc1 (stereo unspecified) | inconclusive: 14.1 µM [activator, partial curve, poor fit] | –
2 | Cc1ccc(CNC(=O)c2sc3nc(-c4ccc(F)cc4)ccc3c2N)cc1 | active: 25.1 µM | –
3 | C#CCN(C(=O)c1cc(COc2ccc(C)c(C)c2)on1)C1CCCCC1 | inconclusive: 25.1 µM [activator, partial curve, poor fit] | –
4 | O=CNc1cc(-c2ccc(C(=O)NC3CC3)cc2)cn2c(-c3ccc(F)c(Cl)c3)cnc12 | inconclusive: 50.1 µM [activator, single point] | –
5 | CC(C)c1ccc(-c2nnn(Cc3nc4ccccc4s3)n2)cc1 | inconclusive: 6.31 µM [activator, full curve] | –
6 | O=C(NCC1CCCO1)c1c[nH]c2ccc(S(=O)(=O)Nc3ccc(F)cc3F)cc2c1=O (stereo unspecified) | – | inactive: -9.82%
7 | C(#CC1=CCCCC1)CNCC1CC1 | – | inactive: -4.88%
8 | CN1[C@@H](Cc2ccccc2)COc2cccc(N3CCCC3)c2S1(=O)=O | inconclusive: 35.5 µM [activator, partial curve, poor fit] | –
9 | CCC1=CC(c2ccccc2)n2ncnc2N1 (stereo unspecified) | – | inactive: 1.33%
10 | COc1ccc([C@H]2CC(=O)C=C(c3cc4ccccc4c4ccccc34)C2)cc1 | inconclusive: 25.1 µM [activator, single point] | –
11 | Cc1ccc(CSC2=Nc3ccccc3C3=NC(CC(=O)NCc4cccs4)C(=O)N23)cc1 (stereo unspecified) | inconclusive: 31.6 µM [activator, single point] | –
12 | Cc1c(C(=O)Nc2ccc(F)cc2)oc2ccc(S(=O)(=O)N3CCC4(CC3)OCCO4)cc12 | inconclusive: 0.794 µM [activator, full curve, poor fit] | –
13 | CC(C)C[C@H]1CN([C@@H](CC(C)C)CN2CCCC2CN2C(=S)NC[C@@H]2Cc2ccccc2)C(=S)N1CCc1ccccc1 (stereo partly specified) | inconclusive: 11.2 µM [activator, partial curve] | –
14 | CN(CC(=O)Nc1c(Cl)cccc1Cl)C(=O)c1cccc(-n2cccc2)c1 | – | inactive: 19.6%
15 | COc1ccc(CN2C(=O)C(CC(=O)NC(c3ccccc3)c3ccccc3)CC(C(=O)N(C)C)=C2C)cc1 (stereo unspecified) | inconclusive: 35.5 µM [activator, partial curve, poor fit] | –
16 | Cn1c2nc3ccccc3c-2nc2ccccc21 | – | inactive: -29.7%
17 | O=C(O)CCc1ccc(-c2cccs2)n1Cc1ccco1 | inconclusive: 31.6 µM [activator, single point] | –
18 | C/C=C/C(=O)N1CC2(CC(c3cccc(NC(=O)CC(c4ccccc4)c4ccccc4)c3)=NO2)C[C@H]1C(N)=O (stereo partly specified) | inconclusive: 22.4 µM [activator, single point] | –
19 | Cc1nc2ccn(Cc3ccccc3)c(=O)c2cc1C(=O)NCc1ccccc1F | – | inactive: 32.4%
20 | CCOC1=C2[C@H]([C@H]3C(=O)N(c4ccccc4)C(=O)[C@H]3C1)[C@@H](c1ccccc1)N(S(=O)(=O)c1ccc(C)cc1)[C@H]2c1ccccc1 | inconclusive: 12.6 µM [activator, partial curve] | –
21 | CC(=O)N1c2ccc(S(=O)(=O)N3CCCCC3)cc2CC1C(=O)Nc1ccc(F)cc1C (stereo unspecified) | inconclusive: 44.7 µM [activator, single point] | –
22 | N#Cc1ccccc1S(=O)(=O)N1CCN(C(=O)CN(Cc2ccco2)Cc2cccs2)CC1 | – | inactive: -11.8%

Row | Compound | Potency | growth rescue (activation)
23 | O=C(NCCc1ccc(Cl)cc1)c1ccc2c(c1)N(Cc1ccccc1F)C(=O)c1ccccc1S2(=O)=O | inconclusive: 6.31 µM [activator, partial curve] | –
24 | COc1ccc(Nc2nc(-c3sc(N)nc3C)cs2)cc1 | inconclusive: 28.2 µM [activator, partial curve, poor fit] | –
25 | O=C(CCCn1ccc2cc(S(=O)(=O)N3CCCC3)ccc21)NCc1ccc(Cl)cc1 | – | inactive: 37.8%
26 | CCOC(=O)CC[C@H]1CC[C@]2(CCCN(C(=O)c3ccno3)C2)O1 | – | inactive: -10.9%
27 | COC(=O)[C@]1(C)N[C@H](c2ccc(-c3cccc(Cl)c3)cc2)[C@@H]2C(=O)N(C)C(=O)[C@@H]21 | inconclusive: 31.6 µM [activator, partial curve] | –
28 | Cc1ccc(NC(=O)CCc2nnc3ccc(NCc4ccco4)nn23)cc1F | inconclusive: 15.8 µM [activator, partial curve, poor fit] | –
29 | CC(=O)c1sc(NC(=O)COc2ccc(C(C)C)c(C)c2)nc1C | – | inconclusive: -96.6% [activator]
30 | Cc1ccc(Cl)cc1-n1ncc2c(NCCC3=CCCCC3)ncnc21 | inconclusive: 50.1 µM [activator, single point] | –
31 | Cc1cccc(Cl)c1NC(=O)N1CCCN(c2nc3ccc(Cl)cc3s2)CC1 | – | inactive: 9.81%
32 | Cc1ccccc1CNC(=O)c1cc2cccc3c2n1CC(C)S3 (stereo unspecified) | inconclusive: 28.2 µM [activator, partial curve, poor fit] | –
33 | COc1ccccc1CC(NC(C)=O)C(=O)NC1CCN(C(=O)Nc2cccc(F)c2)CC1 (stereo unspecified) | – | inactive: -15.7%
34 | Cc1ccc(NC(=O)Cn2cc(C(=O)c3ccco3)c3ccccc32)c(C)c1 | – | inactive: 27%
35 | CN(C(=O)c1cccc(NC(=O)Cc2ccc(NC(=O)C3CCN(C(=O)C4CCCC4)CC3)cc2)c1)C1CCCC1 | inconclusive: 50.1 µM [activator, single point] | –
36 | C[C@@H]1CCCCO[C@H](CN(C)S(=O)(=O)c2cccs2)[C@@H](C)CN([C@H](C)CO)C(=O)c2cc(NC(=O)C3CCCCC3)ccc2O1 | inconclusive: 22.4 µM [activator, single point] | –
37 | CCC1S/C(=C(\C#N)C(=O)NCc2ccco2)N(c2ccc(Br)cc2)C1=O (stereo unspecified) | – | inactive: 8.99%
38 | CC(C)CCNC(=O)[C@H]1COC(O)([C@H](Cc2ccccc2)NC(=O)[C@@H](NC(=O)OCc2ccccc2)C(C)C)CN1C (stereo partly specified) | – | inactive: 12.4%
39 | Cc1ccc(CNC(=O)c2cccc(NC(=O)N3CCSc4ncccc43)c2)cc1 | – | inactive: 4.62%
40 | C/C=C\C=C/C(=O)Nc1cccc(C2=NOC3(C2)C[C@@H](C(N)=O)N(C(=O)/C=C/C=C\C)C3)c1 (stereo partly specified) | inconclusive: 25.1 µM [activator, partial curve] | –
41 | Cc1noc(C)c1COc1ccc(C(=O)Nc2ncccc2O)cc1 | – | inactive: 28.3%
42 | CC(=O)C1=C(O)C(=O)N(CCc2c[nH]c3ccccc23)C1c1cccc(O)c1 (stereo unspecified) | inconclusive: 28.2 µM [activator, single point] | –
43 | COC1=C(Nc2ccccc2OC)C(=O)c2ccccc2C1=O | – | inactive: -1.66%
44 | CCN1C(=O)[C@@H]2[C@@H](c3ccc(-c4ccccc4)cc3)N3CCCC[C@@]3(C(=O)OC)[C@@H]2C1=O | inconclusive: 31.6 µM [activator, single point] | –

Row | Compound | Potency | growth rescue (activation)
45 | CCC(C)NC(=O)CSc1nnc(-c2ccc(C)cc2)c(-c2ccc(C)cc2)n1 (stereo unspecified) | inconclusive: 6.31 µM [activator, partial curve, poor fit] | –
46 | COCCCNC(=O)c1sc2nc(C)c(C(=O)Nc3ccc(C)cc3C)c(-c3ccc(Br)cc3)c2c1N | inconclusive: 25.1 µM [activator, single point] | –
47 | COc1ccc(-c2noc(CN(C(=O)Cc3ccc(C)cc3)C(C)C)n2)cc1 | – | inactive: 22.2%
48 | CCC(=O)N1CCN=C1SCc1cccc(C(F)(F)F)c1 | – | inactive: -24%
49 | CCOC(=O)c1cc(-c2ccc(OC)cc2)n(CCC(=O)Nc2cccc(C(C)=O)c2)c1C | – | inactive: 3.36%
50 | COC(=O)c1ccc(OC(=O)c2cnccn2)cc1 | inconclusive: 2.82 µM [activator, full curve, poor fit] | –
51 | c1ccc(COc2cccc(-c3cc4nc(NCCc5ccncc5)ccn4n3)c2)cc1 | inconclusive: 39.8 µM [activator, single point] | –
52 | CN(C)c1ccc(CNC(=O)CN2C(=O)CCn3nc(-c4cn(C)c5ccccc45)cc32)cc1 | – | inactive: 8.23%
53 | Cc1ccc(CNC(=O)CN2C(=O)CSc3ccc(S(=O)(=O)N4CCCC4)cc32)cc1 | inconclusive: 28.2 µM [activator, single point] | –
54 | CCc1c(C)sc(NC(=O)CN2CCN(C(=O)c3ccco3)CC2)c1C(=O)OC | inconclusive: 20 µM [activator, partial curve] | –
55 | Cc1ccc(C(=O)O)cc1NC(=S)NC(=O)C(c1ccccc1)c1ccccc1 | inconclusive: 17.8 µM [activator, partial curve, poor fit] | –
56 | COc1ccc2c(Sc3ccccc3)c(C(=O)N3CCC(C)CC3)[nH]c2c1 | – | inactive: 43.9%
57 | N#C/C(=C\c1ccc(Cl)cc1)c1nc2ncccc2[nH]1 | – | inactive: 12.2%
58 | CC(C)N1CC=C2C(C#N)=C(N)C(C#N)(C#N)C(c3ccccc3)C2C1 (stereo unspecified) | – | inactive: 19.7%
59 | CCOc1ccc(N2C(=O)CC(NCCNc3ccc(C(=O)c4cccs4)cc3)C2=O)cc1 (stereo unspecified) | inconclusive: 25.1 µM [activator, single point] | –
60 | COc1ccc(C2N=C(Nc3ccc(C)cc3)Nc3nc(C)cc(=O)n32)cc1 (stereo unspecified) | inconclusive: 50.1 µM [activator, single point] | –
61 | O=c1[nH]c(C2CCN(S(=O)(=O)c3ccc4c(c3)OCCO4)CC2)nc2c1nnn2Cc1ccc(F)cc1 | inconclusive: 25.1 µM [activator, single point] | –
62 | CC1(Cc2cccc(C(F)(F)F)c2)C(=O)Nc2c(Cl)cccc21 (stereo unspecified) | – | inactive: 5.1%
63 | COc1ccc(C2C(=O)N(C3CCCCCC3)CC(=O)N2Cc2ccccc2)cc1 (stereo unspecified) | – | inactive: 1.75%
64 | NC(=O)Cn1c(=O)n(CCCCCC(=O)NCc2ccccc2Cl)c(=O)c2sccc21 | – | inactive: -20.2%
65 | Oc1c(Cl)cc(Cl)cc1/C=N/Nc1ncc(Br)cn1 | – | inactive: 18.4%
66 | CCCCN=C1N/C(=C\c2ccco2)C(=O)N1c1ccccc1 | inconclusive: 50.1 µM [activator, single point] | –
